{"source": "patent US9890133B2", "about": "(priority 2011, dated 2018)"}
{"system": "Coxsackie B3", "assay": "Multicycle CPE reduction assay, Coxsackie B3", "conditions": "Enterovirus B, incubation at 37° C. in Vero cells", "method": "The test compounds were evaluated for anti-picornavirus activity by a multicycle cytopathic effect (CPE) reduction assay. The antiviral activity was initially determined using an MTS [3-(4,5-dimethylthiazol-2-yl)-5-(3-carboxymethoxyphenyl)-2-(4-sulfophenyl-2H-tetrazolium]-based CPE reduction assay.\nIn this regard, cells grown to confluence in 96-well plates were infected with 100 50% cell culture infective doses (CCID50) of virus. After an adsorption period of 2 hrs at 37° C., virus was removed and serial dilutions of the compounds were added. […] After removal of the medium, 90 μl of a culture medium and 10 μl of MTS-phenazine methosulfate (Promega, Leiden, The Netherlands) were added to each well. After an incubation period of 2 hrs at 37° C., the optical density (OD) of each well was read at 498 nm in a microplate reader.\nCPE values for evaluating antiviral activity were calculated using the following Mathematic Formula 3: […]\nThe 50% effective concentration (EC50) and the 50% cytotoxic concentration (CC50) were defined as the concentrations of compound that offered 50% protection against virus-induced CPE and that killed cells by 50%, respectively, and were calculated using logarithmic interpolation.", "units": {"EC50": "nM"}}
{"smiles": "CC(C)c1ccc2c(c1)OC1(O)c3ccccc3C(=O)C21O", "note": "(stereo not drawn) [Example 10, 4b,9b-Dihydroxy-7-isopropyl-4bH-benzo[d]indeno[1,2-b]furan-10(9bH)-one]", "EC50": "21 ± 7.2"}
{"smiles": "CC(C)c1ccc2c(c1)O[C@@]1(O)c3cccc(N)c3C(=O)[C@@]21O", "note": "[Example 46, 1-Amino-4b,9b-dihydroxy-7-isopropyl-4bH-benzo[d]indeno[1,2-b]furan-10(9bH)-one]", "EC50": "2.6 ± 1.2"}
{"smiles": "CC(=O)NC12C(=O)c3ccccc3C1(O)Oc1cc(C(C)C)ccc12", "note": "(stereo not drawn) [Example 66, N-(4b-Hydroxy-7-isopropyl-10-oxo-4b,10-dihydro-5-oxa-indeno[2,1-a]inden-9b-yl)-acetamide]", "EC50": "3.3 ± 1.3"}
